Results reported in PubChem BioAssay AID686979 (National Center for Advancing Translational Sciences (NCATS), 2013).
About 50,000 (12%) of roughly 420,000 compounds were called active. The shares of active, inactive and inconclusive entries below differ from those in the screen. Calls come from the whole dose curve; as a rule, active = well fitted inhibition curve with a large enough effect; inconclusive = small, poorly fitted or top-dose-only effect; inactive = flat fitted curve, though single readings scatter. No potency is given beside an inconclusive call; the fits are too rough.

Assay: qHTS for Inhibitors of human tyrosyl-DNA phosphodiesterase 1 (TDP1): qHTS in cells in presence of CPT; note: nearly all actives have a fitted effect of over 55% in size
Conditions: chicken DT40 Tdp1-/-;hTDP1 cells + 20 nM CPT, ATP luminescence, 48 h; activity change, negative = growth inhibition: at 46.2 µM (top of the series) unless noted
Outline: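 Chicken DT40 Tdp1-/- cells stably complemented with human TDP1 were seeded at 400 cells/well in medium containing 20 nM camptothecin, exposed to pin-transferred compounds, and grown at 37 °C for at least 48 hr. Viability was read as ATP luminescence.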
% is set by controls: 0 for no effect and ±100 for the full control effect; potency is the fitted concentration of half-maximal effect; tags give direction and shape of the fitted curve.

Row | Structure (SMILES) | Potency | activity change, negative = growth inhibition
1 | Cc1cccc2cc(CN(Cc3ccc(F)cc3)C(=O)N3CCOCC3)c3nnnn3c12 | inconclusive [inhibitor, single point] | –
2 | Cc1cc(C)c2c(N)c(C(=O)Nc3ccc([N+](=O)[O-])cc3)sc2n1 | inactive | –
3 | O=C1c2cc(S(=O)(=O)NCCO)ccc2-c2ccc(S(=O)(=O)NCCO)cc21 | inactive | –
4 | Cc1cccc(OCC(=O)Nc2cc(S(=O)(=O)N3CCCCC3)ccc2N2CCN(C)CC2)c1 | inconclusive [inhibitor, single point] | –
5 | Cc1csc(NC(=O)CN2C(=O)c3ccccc3C2=O)c1C(N)=O | inactive | –
6 | O=C(NCCO)c1cc(-c2cc(C(=O)NCCO)c3ccccc3n2)nc2ccccc12 | inactive | –
7 | COc1cccc(Nc2nc(C(N)C3CCCCC3)cs2)n1 (centres undefined) | inconclusive [inhibitor, single point] | –
8 | O=C(Nc1ccccn1)[C@@H]1CCC(=O)N1C(=O)OCc1ccccc1 | inactive | –
9 | COc1cccc(CNn2c(-c3cccc(C)c3)nc3ccccc3c2=O)c1 | inconclusive [inhibitor, single point] | –
10 | CSc1ncc(Cl)c(C(=O)Nc2cc(C)ccc2C)n1 | inactive | –
11 | CCC(=O)Nc1nc2ccc3sc(C)nc3c2s1 | active: 18.4 µM | –
12 | O=C(O)CN1C(=O)/C(=C\c2cccc(OCc3ccc(Cl)cc3Cl)c2)SC1=S | – | inconclusive: -32.9% [inhibitor]
13 | CCn1c(=O)c2cc(C(=O)NCCc3ccc(OC)c(OC)c3)sc2c2ccccc21 | active: 8.2 µM | –
14 | Cc1ccc2nc(Cl)c3cc(C(=O)N4CCCC(C)C4)sc3c2c1 (centres undefined) | inconclusive [inhibitor, single point] | –
15 | COc1ccc2cc(C(=O)C3CCCN(C(=O)c4cccnc4)C3)ccc2c1 (centres undefined) | inconclusive [inhibitor, single point] | –
16 | Cc1cc2cc(C)c(NCCNC(=O)c3ccccc3)nc2cc1C | inconclusive [inhibitor, single point] | –
17 | Cc1cccc(Oc2ccc(S(=O)(=O)N3CCCCC3)cc2NC(=O)C2=COCCO2)c1 | inconclusive [inhibitor, single point] | –
18 | CCOc1ccc(CNC(=O)c2ccc(Sc3ccc(C)cc3)c(N)c2)cc1OC | inconclusive [inhibitor, single point] | –
19 | COc1ccc(OC2C(=O)N(CCc3ccc(OC)c(OC)c3)C2c2ccc3c(c2)OCO3)cc1 (centres undefined) | active: 18.4 µM | –
20 | CN1CCN(CCCCOc2cccc3ccccc23)CC1 | inconclusive [inhibitor, single point] | –
21 | CC(C)(C)OC(=O)N1CCC(c2c(C(=O)NCC3CCN(C4CCCC4)C3)cnn2-c2ccc(F)cc2)CC1 (centres undefined) | inconclusive [inhibitor, single point] | –
22 | NC(c1csc(Nc2ccccn2)n1)c1ccccc1Cl (centres undefined) | inconclusive [inhibitor, single point] | –

Row | Structure (SMILES) | Potency | activity change, negative = growth inhibition
23 | Cc1cc(C)cc(NC(=O)NCc2ccccn2)c1 | inactive | –
24 | CC(=O)c1ccc(N=C2SCCCN2C(=O)C2CCCC2)cc1 | inactive | –
25 | Cn1c(=O)cc(OCC(=O)N2CCCc3ccccc32)c2ccccc21 | inconclusive [inhibitor, partial curve, poor fit] | –
26 | COc1ccc(C(C)=O)cc1CSc1nc(NCc2ccc(Cl)cc2)c2ccccc2n1 | inconclusive [inhibitor, single point] | –
27 | CCCN(CC)c1ncnc2[nH]ncc12 | inconclusive [inhibitor, full curve] | –
28 | CN(C)c1ccc(/C=N/NC(=O)c2ccccc2)cc1 | inconclusive [inhibitor, single point] | –
29 | Cc1ccc(-c2csc(NC(=O)Cc3cccs3)n2)cc1C | inactive | –
30 | c1ccc(CCc2nn3c(Cn4nnc5ccccc54)nnc3s2)cc1 | inconclusive [inhibitor, single point] | –
31 | COc1ccccc1N1CCN(C(=O)CNC(=O)c2ccc(Cl)cc2Cl)CC1 | – | inconclusive: -33.3% [inhibitor]
32 | O=C(CCS(=O)(=O)c1nc(-c2ccc3c(c2)OCO3)cc(C(F)(F)F)n1)Nc1ccccc1C(F)(F)F | inconclusive [inhibitor, single point] | –
33 | CCn1c(SCC(=O)c2cc(OC)ccc2OC)nnc1C1CC1 | – | inconclusive: -34.2% [inhibitor]
34 | FC(F)(F)c1cnc(NNC(=S)Nc2cccnc2)c(Cl)c1 | inconclusive [inhibitor, single point] | –
35 | CCOC(=O)C(C(C)=O)c1nc(C)nc2c1nnn2Cc1ccccc1Cl (centres undefined) | inconclusive [inhibitor, single point] | –
36 | CC1(C)Cc2c(C#N)c(N3CCN(C(=O)c4ccco4)CC3)nc(Cc3ccccc3)c2CO1 | inconclusive [inhibitor, single point] | –
37 | CCOc1ccc(-c2nnc(-c3ccccc3)n2-c2ccccc2)cc1 | inconclusive [inhibitor, partial curve] | –
38 | CN(CC(=O)Nc1ccc(Cl)c(Cl)c1)C(=O)CNC(=O)Cc1ccccc1 | active: 20.6 µM | –
39 | O=C(O)CN=C(NS(=O)(=O)c1ccccc1)c1ccccc1 | inconclusive [inhibitor, single point] | –
40 | Cc1nc2nc(C)c(NS(=O)(=O)c3ccc4c(c3)CCCC4)c(=O)n2[nH]1 | inactive | –
41 | CCc1ccccc1NC(=O)c1cc(S(=O)(=O)N2CCC(C)CC2)cn1C | inconclusive [inhibitor, single point] | –
42 | CC1=C(C(=O)Nc2ccc(C)cc2C)C(c2cc(Br)ccc2F)n2ncc(C(=O)Nc3ccc(C)cc3)c2N1 (centres undefined) | inconclusive [inhibitor, single point] | –
43 | CN(C)c1ccc(N=Cc2nc(-c3ccccc3)oc2OC(=O)c2cccc(Br)c2)cc1 | inconclusive [inhibitor, single point] | –
44 | Cc1nn(C2CCS(=O)(=O)C2)c(Cl)c1/C=C/C(=O)OCC(=O)Nc1ccccc1OC(F)F (centres undefined) | inconclusive [inhibitor, single point] | –
